# In all, about 340,000 compounds went through this assay and about 530 (0.16%) were called active. Inconclusive results, whose numbers are uncertain, are shown with a selection of clear calls. No stated cut-off is given here; in the data, active means activity change below about -80%; inconclusive means between about -30% and that limit; inactive means weaker than that.
# Assay: Small Molecules that selectively kill Giardia lamblia: qHTS;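 further: parasites exposed to compound for two days anaerobically before the ATP read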
# Conditions: Giardia lamblia trophozoite viability; at 7.66 µM; stronger effect = lower value
# Procedure, shortened: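 Trophozoites 100 cells/well + cpd; 48 hrs, 37 deg C, anaerobic. ATPLite 1-Step added, 15-30 min RT, luminescence read (ATP-based viability).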
# On the % scale 0 is the no-effect control and ±100 the full control effect.
row,SMILES,activity change
1,OC(CNCC1COc2ccccc2O1)COc1ccc(Cl)cc1 (stereo not given),inconclusive: -32.3% [inhibitor]
2,Cc1cc(C)nc(SCc2nnc(SCC(=O)Nc3ccc(Cl)c(C(F)(F)F)c3)o2)n1,inactive: -4.45%
3,CCOC(=O)c1nc2c(=O)n(C)c(=O)n(C)c2n(C)c1=O,inconclusive: -37.7% [inhibitor]
4,CSc1ccc(CN2CCCC(CO)(Cc3ccccc3)C2)cc1 (stereo not given),inactive: 9.49%
5,CCn1cnc2cc(NC(=O)c3ccco3)ccc21,inconclusive: -31.9% [inhibitor]
6,O=C(CCn1nnc2ccccc21)OCC(=O)c1ccc(F)cc1,inactive: 0.798%
7,CCOC(=O)Cc1ccc(NC(=O)c2ccc(C(C)(C)C)cc2)cc1,inconclusive: -50.8% [inhibitor]
8,COc1ccc(CCN(C)C(=O)c2ccc(S(=O)(=O)Nc3ccccc3C)cc2)cc1OC,inconclusive: -35.2% [inhibitor]
9,O=C(NCc1ccc(OC(F)(F)F)cc1)C12CN(Cc3ccccc3)CC1C(c1cccc([N+](=O)[O-])c1)=NO2 (stereo not given),inactive: -21.3%
10,O=C(O)CCCC(=O)N1CCN(c2nc(-c3ccccc3Cl)c3cc(Br)ccc3n2)CC1,inactive: -2.56%
11,CC1=NN(c2nc(-c3ccccc3)cs2)C(=O)C1N=Nc1ccccc1 (stereo not given),inconclusive: -36.3% [inhibitor]
12,COc1cc(OC)c(NC(=O)CCNS(=O)(=O)c2ccc3c(c2)oc(=O)n3C)cc1Cl,inconclusive: -35.7% [inhibitor]
13,CCOc1ccccc1NC(=O)COC(=O)C(CC)c1ccccc1 (stereo not given),inconclusive: -37.4% [inhibitor]
14,CCN(CC)C(=O)c1nc[nH]c1C(=O)N1CCN(c2ccccc2)CC1,inconclusive: -32.1% [inhibitor]
15,c1ccc(-c2noc(-c3ccc4ccccc4c3)n2)nc1,active: -92.5%
16,CC(C)(O)C#Cc1ccc(CN2CCN(Cc3ccsc3)C(CCO)C2)s1 (stereo not given),inconclusive: -32.7% [inhibitor]
17,O=[N+]([O-])c1ccc(/C=N/NC(=S)Nc2ccccc2)o1,inconclusive: -58.6% [inhibitor]
18,CCCCC(=O)Nc1cccc(NC(=O)c2cccc(Br)c2)c1,inactive: -15.8%
19,C1=Cc2ccccc2Nc2ccccc21,inconclusive: -38.8% [inhibitor]
20,Cn1c(=O)c(C(=O)Nc2ncccn2)c(O)c2ccccc21,inconclusive: -41.6% [inhibitor]
21,CCCCN(C(=O)c1cc(=O)[nH]c2ccccc12)c1c(N)n(CCCC)c(=O)[nH]c1=O,inconclusive: -34.7% [inhibitor]
22,CCOC(=O)C1CCN(C(=O)CN(C)S(=O)(=O)c2cc(C)ccc2OC)CC1,inconclusive: -32% [inhibitor]
23,O=C1CC(c2ccc3c(c2)OCCO3)Oc2ccc([N+](=O)[O-])cc21 (stereo not given),inconclusive: -34.7% [inhibitor]
24,O=C(Nc1ccc2[nH]ncc2c1)c1ccccc1Cl,inconclusive: -50.6% [inhibitor]
25,Cc1ccc(C(=O)CCC(=O)OCC(=O)NNC(=O)c2ccccc2Cl)cc1,inconclusive: -31.7% [inhibitor]

row,SMILES,activity change
1,O=C1NCc2c1c1c3ccccc3[nH]c1c1[nH]c3ccccc3c21,inactive: 25.2%
2,Cc1cccc(S(=O)(=O)NC(Cc2c[nH]c3ccccc23)C(=O)O)c1 (stereo not given),inconclusive: -35.2% [inhibitor]
3,CC(C)(C)N1C(=O)[C@H]2[C@@H](c3ccc(Br)cc3)N3C(=O)N(c4cccc(Cl)c4)C(=O)[C@@]3(Cc3ccccc3)[C@H]2C1=O,inconclusive: -38.4% [inhibitor]
4,Cc1sc2ncnc(N3CCN(S(=O)(=O)c4ccc(F)cc4)CC3)c2c1C,inactive: 5.39%
5,CCOC(=O)c1ccc(Oc2nc(NC(C)(C)C)nc(N(C)C)n2)cc1,inactive: -3.41%
6,O=C(Nc1nc2ccccc2[nH]1)c1ccc(Cl)cc1,inconclusive: -47.9% [inhibitor]
7,O=[N+]([O-])c1ccc(/C=N/n2c(CO)nc3ccccc32)s1,active: -106%
8,O=C(COC(=O)c1ccccc1O)NC(=O)c1ccc(OC(F)F)cc1,inconclusive: -38.1% [inhibitor]
9,Cc1cccc(N2CCN(c3ccc4cc(S(=O)(=O)N5CCCCC5)ccc4n3)CC2)c1C,inactive: -13.8%
10,CC(N=c1ccccn1C(=O)Nc1ccc(Cl)cc1)c1ccco1 (stereo not given),inconclusive: -32.8% [inhibitor]
11,CCNC(=S)NNc1nnc(-c2ccccc2)c(-c2ccccc2)n1,inactive: -0.0594%
12,COc1ccc(C)cc1NC(=O)Nc1ccc2c(c1)CCC2,inconclusive: -33% [inhibitor]
13,Cc1ccc(-n2ncc3c2CCCC3NC(=O)CCCN2CCCCC2=O)cc1C (stereo not given),inconclusive: -30.7% [inhibitor]
14,Cc1ccc(C(=O)NC(=S)Nc2ccc(CN3CCOCC3)cc2)cc1,inactive: 9.14%
15,O=C(Nc1ccc(OC(F)(F)F)cc1)NC1CCC(Oc2ccc(C(=O)O)cc2)CC1 (stereo not given),inconclusive: -33.4% [inhibitor]
16,CCOc1ccc(C(=O)N/N=C/c2ccccc2[N+](=O)[O-])cc1,inconclusive: -36.4% [inhibitor]
17,O=C(NCCC(c1ccccc1)c1ccccc1)c1cnc2sccn2c1=O,inconclusive: -36.5% [inhibitor]
18,Cc1ccc(C(=O)N/N=C2\CCc3ccccc32)c(C)c1,inconclusive: -38.5% [inhibitor]
19,O=C(CCCN1C(=O)/C(=C\c2cccs2)SC1=S)Nc1ccc(C(=O)O)cc1,inactive: -11.1%
20,COc1cc(NS(=O)(=O)c2ccc3c(c2)NC(=O)CO3)cc(OC)c1,inconclusive: -31.5% [inhibitor]
21,Cc1cc(NC(=O)c2ccc(Cl)c(S(=O)(=O)N3CCOCC3)c2)no1,inconclusive: -33% [inhibitor]
22,COc1ccc(S(=O)(=O)Nc2ccc3c(c2)OCCO3)cc1OC,inconclusive: -33.7% [inhibitor]
23,CC(C)OC(=O)c1cc(-c2ccc(C=O)o2)ccc1Cl,inconclusive: -32.4% [inhibitor]
24,COC(=O)C1=C(C)NC(=O)NC1c1ccc([N+](=O)[O-])o1 (stereo not given),inconclusive: -52.3% [inhibitor]
25,COc1ccc([C@H]2CC(=O)C=C(c3cccc(Br)c3)C2)cc1,inconclusive: -35% [inhibitor]

row,SMILES,activity change
1,COC(=O)c1c(C)[nH]c(C(=O)OCC(=O)c2c(N)n(CC(C)C)c(=O)n(C)c2=O)c1C,inactive: 4.41%
2,Cc1ccc([C@@H]2CC=C(C(=O)O)CN2S(=O)(=O)c2ccc(C)cc2)cc1,inconclusive: -47.7% [inhibitor]
3,CCOc1cc(C(=O)N(C)CC(=O)Nc2cccc(F)c2)ccc1OCC(=O)N1CCOCC1,inconclusive: -30.9% [inhibitor]
4,CCCc1cc(=O)oc2cc(C)cc(OCC(=O)N3CCC(C(=O)O)CC3)c12,inconclusive: -30.4% [inhibitor]
5,O=C(/C=C/Nc1ccc(Br)cc1F)c1ccccc1,inconclusive: -65.2% [inhibitor]
6,Cn1cc(CN2CCCCC2C(=O)Nc2ccc(-n3cccn3)cc2)cn1 (stereo not given),inconclusive: -35.2% [inhibitor]
7,CC(=O)O[C@@H]1[C@H]2[C@@H](C[C@@H](C)[C@@H]3C=CC(=O)[C@@]13C)OC(=O)[C@@H]2C,inactive: 21.5%
8,COc1cccc(C(=O)COc2cccc(NC(=O)c3ccco3)c2)c1,inactive: -1.42%
9,COc1ccc(CNC(=O)Cc2ccc(NC(=O)C3=C(C)OCCS3)cc2)cc1,inconclusive: -61.4% [inhibitor]
10,O=C(COC(=O)CN1C(=O)c2ccccc2C1=O)Nc1ccccc1[N+](=O)[O-],inconclusive: -32.6% [inhibitor]
11,CCOc1ccc([C@@H]2CC=C(C(=O)O)[C@H](c3cccc(Cl)c3)N2S(=O)(=O)c2ccc(C)cc2)cc1,inconclusive: -38.3% [inhibitor]
12,O=C(NC(=S)Nc1cc([N+](=O)[O-])ccc1O)c1cccnc1,inconclusive: -32.4% [inhibitor]
13,CCC(C)(C)C(=O)Nc1nnc(CCc2ccccc2)s1,inconclusive: -41.8% [inhibitor]
14,O=C(NCc1cccnc1)c1cccc(-c2cc3ccccc3oc2=O)c1,inconclusive: -35.9% [inhibitor]
15,Cc1csc(C(C#N)C(=O)c2cc3ccccc3o2)n1 (stereo not given),inconclusive: -36.9% [inhibitor]
16,COc1ccc(-c2cc(C(=O)Nc3cccnc3)c3ccccc3n2)cc1OC,inactive: 9.51%
17,Cc1cc(-c2n[nH]c(=S)n2Cc2ccccc2)cs1,inconclusive: -36.8% [inhibitor]
18,CCOc1cc(/C=C/c2cc(C(=O)O)c3ccccc3n2)ccc1OC,inconclusive: -54.2% [inhibitor]
19,O=S(=O)(NC1CCCCC1Nc1ccc(Cl)cc1)c1ccccc1 (stereo not given),inconclusive: -36.3% [inhibitor]
20,COC(=O)c1cn(C(=O)c2ccc(C)c(C)c2)c2ccccc12,inactive: -8.75%
21,O=[N+]([O-])c1ccc(Oc2ccc(F)cc2Br)c2ccncc12,inconclusive: -32.8% [inhibitor]
22,Cc1cc2nc(-c3ccc(SCC(=O)Nc4ccc5c(c4)OCCO5)nc3)[nH]c2cc1C,inconclusive: -31.7% [inhibitor]
23,Cc1ccc(S(=O)(=O)Cc2cc(F)c([N+](=O)[O-])cc2[N+](=O)[O-])cc1,inconclusive: -46% [inhibitor]
24,CCOC(=O)c1cnc2ccc(C)cc2c1N(C)Cc1ccccc1,inactive: 3.05%
25,COC(=O)[C@@]1(Cc2ccccc2)[C@H]2C(=O)N(Cc3ccccc3)C(=O)[C@H]2[C@H]2CN=C(SCc3ccc(C)cc3)N21,inconclusive: -35.5% [inhibitor]

# From PubChem BioAssay AID540267 (National Center for Advancing Translational Sciences (NCATS), 2011)
